Each structure is given as a SMILES string. Screen size: about 110,000 compounds; about 230 (0.21%) showed an effect of 50% or more. The list shows a part of the results.
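Note: 30 min substrate incubation versus DMSO and 10 µM JCP410 controls.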

The target of this test is DPAP1 (Plasmodium falciparum, UniProt Q8IIJ9). Briefly: primary screen, percent inhibition; read by cleavage of a fluorogenic dipeptide substrate; higher = more effect of the substance. Further details: species or system P. falciparum D10 trophozoite lysates; single well.
DPAP1, sequence (Q8IIJ9 whole entry, looked up): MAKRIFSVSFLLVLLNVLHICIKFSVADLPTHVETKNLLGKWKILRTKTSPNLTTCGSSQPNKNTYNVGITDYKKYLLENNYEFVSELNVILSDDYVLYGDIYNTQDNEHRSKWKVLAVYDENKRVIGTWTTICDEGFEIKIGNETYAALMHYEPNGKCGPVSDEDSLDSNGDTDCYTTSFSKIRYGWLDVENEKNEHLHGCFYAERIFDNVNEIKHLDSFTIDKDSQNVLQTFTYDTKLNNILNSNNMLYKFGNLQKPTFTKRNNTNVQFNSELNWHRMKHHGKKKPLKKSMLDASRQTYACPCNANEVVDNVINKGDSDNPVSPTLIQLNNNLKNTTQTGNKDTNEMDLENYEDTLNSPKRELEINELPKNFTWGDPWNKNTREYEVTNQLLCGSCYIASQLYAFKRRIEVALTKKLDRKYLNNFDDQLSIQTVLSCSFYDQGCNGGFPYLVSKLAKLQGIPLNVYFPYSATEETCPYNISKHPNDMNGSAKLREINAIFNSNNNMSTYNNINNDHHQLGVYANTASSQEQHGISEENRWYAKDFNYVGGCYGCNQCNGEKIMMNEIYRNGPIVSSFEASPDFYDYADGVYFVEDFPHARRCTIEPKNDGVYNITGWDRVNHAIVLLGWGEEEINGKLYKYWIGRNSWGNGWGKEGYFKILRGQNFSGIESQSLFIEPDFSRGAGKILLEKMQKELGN
Take `COc1ccc(CN2CCN(Cc3cccc(C)c3)CC2)cc1`: the “% Inhibition @ 10 uM” value is -6.57%.
For `CC(=O)Nc1ccc(S(=O)(=O)NCc2ccccc2Cl)cc1`, the “% Inhibition @ 10 uM” value was -0.116%.
Under `COc1ccc(-c2cc(C(F)(F)F)nc(S(=O)(=O)CCC(=O)NCc3ccccc3)n2)cc1` stands 1.72%.
On to `Cc1cc2cc(CNS(=O)(=O)N(C)C)ccc2n1C`, for which the “% Inhibition @ 10 uM” value is -0.138%.
Under `CCC(C)NC(=O)c1ccccc1NS(=O)(=O)c1ccc(Br)cc1` (stereo not shown) stands 0.214%.
Under `CCCCN(C)CCCNC(=O)c1ccc(CNS(=O)(=O)c2ccc(Br)cc2)cc1` stands 0.208%.
Regarding `O=C(O)C(Cc1ccccc1)Nc1ncnc2c1oc1ccccc12` (stereo not shown), the “% Inhibition @ 10 uM” value stood at 4.44%.
In the case of `CCOc1cccc(-c2cc(C(=O)Nc3ccc(C(N)=O)cc3)c3ccccc3n2)c1`, the “% Inhibition @ 10 uM” value is -18.6%.
Under `OCCC1CCCCN1CCc1ccccc1` (stereo not shown) stands 1.62%; under `O=C(Cn1ncn2c(cc3ccccc32)c1=O)NC1CC1`, 4.84%; under `CCN1C(=O)N/C(=C/c2ccc(OC)c(Br)c2)C1=O`, 19.8%.
Under `CN1C(c2ccccc2)=CC(c2ccccc2)n2nnnc21` (stereo not shown) stands -2.36%.
As to `O=C(CN1CCOCC1)N1CCN(C(=O)CN2CCOCC2)CC1`, the “% Inhibition @ 10 uM” value is -1.42%.
Under `COc1cc2c(cc1OC)C(C(=O)NCc1ccc(F)cc1)C(c1cccs1)N(C)C2=O` (stereo not shown) stands 8.16%; under `Cc1ccc2nc(NCCCO)nc(-c3ccccc3)c2c1`, -10.8%; under `CN(CC(=O)N1CCN(C2CCCCC2)CC1)S(=O)(=O)c1ccc2[nH]c(-c3ccccc3)nc2c1`, 3.57%.
Under `COc1cc(/C=C2\N=C(c3ccccc3)OC2=O)ccc1OCc1c(C)no[n+]1[O-]` stands 23.4%; under `C=CCn1c(=S)[nH]c2ccccc2c1=O`, 4.52%.
Under `CCc1ccc(-c2nc(CSCC(=O)NC(C)CC)c(C)o2)cc1` (stereo not shown) stands 2.37%; under `O=C(CSc1nnc(COc2ccc(Cl)cc2)o1)N1CCCCC1`, 0.738%.
With `O=C(O)COc1ccc(/C=C2/SC(=O)NC2=O)cc1`, the “% Inhibition @ 10 uM” value is recorded as 4.86%.
Under `COC(=O)c1cc(S(=O)(=O)NC2CCC(C)CC2)cn1C` (stereo not shown) stands -6.59%.
Under `COc1cc(C2C3=C(O)CC(C)(C)CC3=NC(C)=C2C(=O)Nc2cccc(C)n2)cc(OC)c1OC` (stereo not shown) stands -5.79%; under `Cc1ccccc1CN(CC(C)O)CC(C)O` (stereo not shown), 3.48%.
Under `Cc1cc(C)c(C)c(S(=O)(=O)NCc2ccc(C(=O)NCC3CCCO3)cc2)c1C` (stereo not shown) stands -2.85%; under `O=C(Nc1nccs1)c1ccc(COc2ccc(Cl)cc2Cl)o1`, 1.92%.
With `CCCOc1ccc(CNC(=O)C(C)n2nc(C)c3sc4ccccc4c3c2=O)cc1` (stereo not shown), the “% Inhibition @ 10 uM” value is given as -4.26%.
Under `Cc1cccc(OCCCCn2ccnc2)c1` stands -2.28%; under `COc1cc(CNCCSc2nnnn2C)cc(Br)c1OCC(N)=O`, -1.71%.
Under `COc1ccc(CC(C)NCc2ccc(C(F)(F)F)cc2)cc1` (stereo not shown) stands 1.26%; under `COC(=O)Nc1ccccc1C(=O)N1CCN(c2ccc(C)cc2)CC1`, -2.76%; under `Cc1nn(Cc2ccccc2)c(C)c1NC(=O)CSc1nc2sc3c(c2c(=O)n1C)CCC3`, -1.28%.
Under `COc1cc(/C=C2\SC(=O)N(Cc3ccc(F)cc3)C2=O)cc(OC)c1OC` stands 3.8%.
For the compound `CCCNC(=O)c1nc(C)c(C)nc1C(=O)Nc1ccccc1C`, the “% Inhibition @ 10 uM” value is on record as -0.487%.
As to `COCCCNC(=O)c1cc(-c2ccc(OC)cc2OC)nc2ccccc12`, the “% Inhibition @ 10 uM” value is -7.09%.
On to `Cc1cccc(-c2nc(O)c3c(n2)Oc2ccccc2C3)c1`, for which the “% Inhibition @ 10 uM” value turned out to be 12.6%.
Turning to `CCCSc1nc(O)c(CC)c(=O)n1-c1ccccc1`, the “% Inhibition @ 10 uM” value was determined as 3.47%.
Under `c1ccc(-c2cc(-c3ccccc3)n3ncnc3n2)cc1` stands 5.93%.
Under `COc1cccc(-n2c(C)cc(/C=C3\C(=N)N4C(C)=CSC4=NC3=O)c2C)c1` stands 2.25%.
In the case of `NC(CSC12CC3CC(CC(C3)C1)C2)C(=O)O` (stereo not shown), the “% Inhibition @ 10 uM” value was 1.66%.
On to `COC(=O)c1cc(-c2ccco2)c2c(=O)[nH]c(=O)n(C)c2n1`, for which the “% Inhibition @ 10 uM” value is given as -4.07%.
Under `C=CCO/C(O)=C1\C(C)=Nc2nnnn2C1c1cccc(OC)c1OC` (stereo not shown) stands -1.62%.
Under `CCN(CC)CCNC(=O)C1CCN(c2nnc(C)c3c(C)n(-c4ccc(C)cc4)nc23)CC1` stands 4.23%; under `CCN1C(=O)c2cccc3c(S(=O)(=O)N(C)C)ccc1c23`, -3.09%.
Under `COC(=O)c1[nH]c2ccc(C)cc2c1NC(C)=O` stands 0.0198%.
As to `CC1=C(C(=O)Nc2ccccn2)C(c2cccc(Cl)c2Cl)C2=C(O)CC(C)(C)CC2=N1` (stereo not shown), the “% Inhibition @ 10 uM” value worked out at 4.7%.
Take `CCCN(C(=O)c1ccco1)c1nc(-c2cccc(Cl)c2)cs1`: the “% Inhibition @ 10 uM” value is recorded as 11.9%.
Under `O=C(O)CP(=O)(O)c1ccc(Cl)cc1` stands -1.97%; under `COc1ccc(Br)cc1CNC1CCCCC1C` (stereo not shown), -6.08%.
As for `O=C(CCc1nc2ccccc2[nH]1)N1CCN(C(=O)c2ccco2)CC1`, the “% Inhibition @ 10 uM” value is 0.738%.
Under `COc1ccc(NCC(O)Cn2c(C)c(C)c3ccccc32)cc1` (stereo not shown) stands 3.53%; under `COc1ccc(OC)c(C2NCCc3[nH]cnc32)c1` (stereo not shown), 0.774%; under `O=C(O)CCCCCNC(=O)/C(=C/c1ccc(Cl)cc1)NC(=O)c1ccccc1`, 8.6%.
Under `CCCCn1c2c(c3ccccc31)CCc1nonc1-2` stands -2.15%; under `Cc1ccc(OCC(=O)Nc2ccc(O)cc2)c(C)c1`, -5.6%.
For `COc1cccc(C(=O)Nc2ccc(F)c(Cl)c2)c1`, the “% Inhibition @ 10 uM” value is on record as -2.22%.
Under `CCN(CC)c1nc(C)cc(COC)c1C#N` stands 1.72%; under `Cc1cc(C(=O)C(=O)Nc2nnc(-c3ccncc3)s2)c(C)n1-c1ccccc1`, 3.92%; under `Cc1nn(-c2ccccc2)c2c1C(C(F)(F)F)(C(F)(F)F)C(C#N)=C(N)O2`, -0.25%.
For the compound `CCOC(=O)c1sc2nc(N)c(C#N)cc2c1N`, the “% Inhibition @ 10 uM” value was -1.07%.
Take `COc1ccc(Cc2nc3c4cnn(-c5ccc(C)c(C)c5)c4ncn3n2)cc1OC`: the “% Inhibition @ 10 uM” value was 0.569%.
Under `Fc1ccc(N2CCN(Cc3nc(-c4ccccc4)no3)CC2)cc1` stands -5.7%.
`O=C(NCCSc1c(-c2ccc(Br)cc2)[nH]c2ccccc12)c1ccncc1`: the “% Inhibition @ 10 uM” value is -1.73%.
On to `COc1ccc(NC(=O)c2cc(Cl)cc(Cl)c2OC)cc1`, for which the “% Inhibition @ 10 uM” value stood at 0.989%.
Regarding `Cc1ccc2nsnc2c1S(=O)(=O)Nc1cccc2nsnc12`, the “% Inhibition @ 10 uM” value is given as -4.89%.
Consider `CCC(CO)NS(=O)(=O)c1cc(-c2nn(C)c(=O)c3ccccc23)ccc1C` (stereo not shown), for which the “% Inhibition @ 10 uM” value is reported as -5.85%.
Under `O=C(NCc1ccccc1Cl)C1CCN(S(=O)(=O)N2CCCCCC2)CC1` stands 4.36%; under `Cc1c2cnn(CC(=O)N3CCCCCC3)c(=O)c2c(C)n1Cc1ccc(Cl)cc1`, -0.447%.
Consider `CCN1CCN(C(=O)c2ccc(CS(=O)Cc3ccc(C)cc3)o2)CC1` (stereo not shown), for which the “% Inhibition @ 10 uM” value was found to be 0.677%.
Under `C=CCc1cc(C=C2C(=O)c3ccccc3C2=O)cc(OCC)c1O` stands 0.343%; under `CN(C)c1ccc(/C=C(\NC(=O)c2ccccc2)C(=O)NCCO)cc1`, 4.08%.
As for `CCOC(=O)c1ccc2nc(C(F)(F)F)nc(N3CC(C)OC(C)C3)c2c1` (stereo not shown), the “% Inhibition @ 10 uM” value is -4.78%.
Under `Cn1c(=O)c2ccccc2n2c(CCC(=O)NCCc3ccccc3)nnc12` stands -2.42%; under `O=C(NCc1ccc(F)cc1)C1=Cc2sc3c(c2CS1)CCCC3`, -2.65%.
Under `COc1cccc(C2=NS(=O)(=O)N(C)C(C(=O)N3CCN(C(=O)C(C)(C)C)CC3)=C2)c1` stands 2.32%.
With `CC1=NN(c2ccc(Cl)c(Cl)c2)C(=O)/C1=C/c1cc2ccccc2[nH]1`, the “% Inhibition @ 10 uM” value is 0.219%.
For the compound `CC(C)(C)OC(=O)N[C@@H](Cc1cn(C=O)c2ccccc12)C(=O)NCC#N`, the “% Inhibition @ 10 uM” value is reported as -5.21%.
Under `CCC1CCCCN1S(=O)(=O)c1ccc2nc(O)cc(C(=O)NCCCN3CCCCC3)c2c1` (stereo not shown) stands 2.05%.
Turning to `Cc1sc2ncnc(SC(C)C(=O)O)c2c1C` (stereo not shown), the “% Inhibition @ 10 uM” value was determined as 5.75%.
Under `CC1CCN(C(=O)Cn2cnc3c(nnn3Cc3ccccc3F)c2=O)CC1` stands 24%.
Under `Nc1ncc(-c2ccc([N+](=O)[O-])cc2)cn1` stands 3.53%; under `Cc1cccc(-c2nnn(-c3cccc(Cl)c3C)n2)c1`, -5.33%; under `COc1cc2c(cc1OC)CN(Cc1cc(Br)cs1)CC2`, 0.605%.
Under `Cc1ccc(OCC(=O)Nc2ccc(Cl)cc2)cc1` stands -2.28%; under `Cc1cccn2c(=O)c(/C=C(\C#N)C(=O)NCc3ccccc3)c(Oc3ccccc3)nc12`, 0.101%.
Take `O=C1N/C(=C/c2ccc3c(c2)OCCO3)C(=O)N1Cc1ccc(F)cc1`: the “% Inhibition @ 10 uM” value is reported as 1.91%.
Under `COc1nc(C)ccc1-c1noc(-c2ccccc2C)n1` stands 0.415%; under `CCN1CCCC1CNC(=O)CSCc1nc(-c2ccccc2C)oc1C` (stereo not shown), 3.99%; under `N#Cc1c2n(c3c(O)ncnc13)CCCCC2`, 1.9%.
Under `COc1ccc(S(=O)(=O)Cc2ccc(C(=O)N3CCCCC3)o2)cc1` stands -3.09%.
On to `CCOc1cccc(NC(=O)c2cccc(C)c2)c1`, for which the “% Inhibition @ 10 uM” value was found to be 6.43%.
As to `CCC(Sc1nc2nnc(C)c-2c(N)n1-c1ccc(Cl)c(C)c1)C(=O)N(CC)CC` (stereo not shown), the “% Inhibition @ 10 uM” value is recorded as -0.256%.
Under `CCC(=O)NC1(C(F)(F)F)C(=O)Nc2c1c(=O)[nH]c(=O)n2-c1ccc(C)cc1` (stereo not shown) stands 2.42%.
For the compound `COc1ccc(NC(=O)CSCc2ccc(Br)cc2)cc1`, the “% Inhibition @ 10 uM” value is reported as -3.16%.
Under `CCc1ccc(/C=N/n2c(C)nnc2-n2nc(C)cc2C)cc1` stands 4.18%; under `CCN(CC)S(=O)(=O)c1cc(C(=O)Nc2nnc(-c3ccccc3)s2)ccc1C`, 0.997%; under `O=[N+]([O-])c1ccc(N2CCN(Cc3ccc4c(c3)OCO4)CC2)cc1`, -3.56%.
In the case of `C=Cc1ccc(Cn2c(C(=O)O)c(CNCc3ccccc3OCC)c3ccccc32)cc1`, the “% Inhibition @ 10 uM” value is given as -1.09%.
Take `CN1CCC(N(C)Cc2cc([N+](=O)[O-])ccc2Cl)CC1`: the “% Inhibition @ 10 uM” value is -6.21%.
Under `Cc1cc(OCCCCOc2ccc(S(N)(=O)=O)c(C)c2)ccc1S(N)(=O)=O` stands 1.52%.

The record behind these values is paper PMC6919601, “Identification of Plasmodium dipeptidyl aminopeptidase allosteric inhibitors by high throughput screening” (PLoS ONE, 2019).
